Test results from the supplement of paper PMC10338343.
± gives the standard deviation. This is a selection; strong and weak results do not stand in their true shares.

system: MIWI (PIWIL1) piRISC loaded with L1MC piRNA (30 nt); experiment: pre-steady-state target cleavage rate (min^-1); MIWI and MILI are mouse PIWI proteins and EfPiwi is from a freshwater sponge; tags in brackets are library labels; higher = faster piRNA-guided slicing of the target; details: guide: L1MC piRNA 5'p-UAACUAAAUACUAUGCAAGCUGUAGGUCCU; auxiliary factor: 500 nM mouse GTSF1
How it was run: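 Reactions were run for 0–8 or 0–960 min at 33 °C in HEPES–potassium acetate buffer, combining 1 nM active affinity-purified piRISC with one synthetic guide, […] transcribed, DNA-blocked target RNA library and, in some cases, 500 nM GTSF1 partner protein. Sequencing of uncleaved targets followed, with normalisation to depth and to weakly complementary targets. Three trials were pooled, k3 was capped at 0.0001 min^-1, and the pre-steady-state cleavage rate was taken from a burst-and-steady-state fit.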
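Further: 1 nM active piRISC with 0.1 nM target library at 33 °C single turnover.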

Sequence | pre-steady-state target cleavage rate
UCCACCUUCAGCUUGCAUAGUAUUUUCAAA | 0.345 ± 0.049
UCCUGGAUGUCGUAGCAUAGUAUUUUGUUA | 0.00924 ± 0.005
UGGACCUACAGCUUCGUUAGUAUUUAGAAA | 0.00329 ± 0.0029
UCCUGGUACAGCUUGCAUAGAUUUUAGAAA | 0.00753 ± 0.0052
UCCUGCUACAGCUUCCAUAGUAAUUAGUUA | 0.0892 ± 0.03
UCCACCUACAGCUUGCAUAGUAUAAUGUAA | 0.143 ± 0.031
UCCUGCUACACGUUGCAUAGUAUUUUCAAA | 0.0964 ± 0.031
AGGACCUACAGCUACGAUAGUAUUUAGUUA | 0.169 ± 0.019
UCGACCUACAGCUUCCAUAGUAUUUAGUAA | 0.075 ± 0.018
UCCACCUACAGCUUGCAUAGUAAAAUCAAA | 0.222 ± 0.068
AGGACCUAGUCCUUGCAUAGUAUUUUCAAA | 0.178 ± 0.03
AGGACCUACAGCUUGCAUACGUAUUUAGUUA | 0.208 ± 0.078
UCCUCCUACAGCUUGCAUAGAAUUUUCAAA | 0.194 ± 0.039
UCCUGGAUGUCCUUGCAAAGUAUUUACUUA | 0.0186 ± 0.0064
UCCACCUACAGGUUGCAUAGUAUUUAGAAA | 0.455 ± 0.056
AGGACCUACAGCUUCGAUAGUAUUUAGUUA | 0.818 ± 0.056
UCCACCUACAGCUUGCAUUCUAUUUAGUAA | 0.0863 ± 0.019
UCCUGCUAGAGCUUGCAUAGUAUUUUCAAA | 0.104 ± 0.027
UCCUGCUACAGCUUGCAUAAGUAUUUAGUUA | 0.0112 ± 0.0056
UCCUGCUACAGCUUGCUUAGUAUUUACAAA | 0.0704 ± 0.016

Sequence | pre-steady-state target cleavage rate
UCCUGGAUGUGCAUGCUUAGUAUUUAGUUA | 0.0054 ± 0.0048
UCCUCCUACAGCUUGCAAUGUAUUUAGAAA | 0.116 ± 0.023
UCGACCUACAGCUUGCUUAGUAUUUACAAA | 0.309 ± 0.042
UCCUGGAUGUCGAAGCAUAGUAUUUGGUUA | 0.00555 ± 0.004
UCCUGGUACAGCUACGAUAGUAUUUAGUUA | 0.0384 ± 0.0077
UCGACCUACAGCUUGCAUAGUAUAAUGAAA | 0.366 ± 0.044
UCCUCCUACAGCUACGAUAGUAUUUAGUAA | 0.0585 ± 0.018
UGGACCUACAGCUUGCAUAGUAUAAAGAAA | 0.211 ± 0.047
UCCUGGAUGUCGAACGUAUGGUAUUUAGUUA | < 0.0001
UCCUGGAACAGCAUCCAUAGUAUUUAGUUA | 0.0928 ± 0.018
UCCUGGAUGUCCUUGCUAAGUAUUUAGUAA | 0.00854 ± 0.0055
UCCUGGAUGUCGAUGCAUAGUAUUUAGUUU [g2:g17:cont:t1U] | 0.00599 ± 0.0026
UCCACCUACAGCUUGCAUAGUAUUAAGAAA | 0.351 ± 0.054
UCCUGGAACAGCUACCAUAGUAUUUAGAAA | 0.0039 ± 0.0039
UCCUGGAACACGUUGCAUAGUAUUUUCAAA | 0.00665 ± 0.0042
UCCUCCUACAGCUACCAUAGUAUUUACAAA | 0.0268 ± 0.013
UCCUGGAUGUCCAUGCAUAGUAAUUAGUUA | 0.00537 ± 0.0047
UCCUGGAUCACCUUCCAUAGUAUUUAGUUA | 0.00835 ± 0.0045
UCGACCUACAGCUUGCUAUGUAUUUACAAA | 0.00681 ± 0.0034
